The results in this text go back to PubChem BioAssay AID1963576 (National Center for Advancing Translational Sciences (NCATS), 2024).

Each structure is given as a SMILES string. Out of some 46,000 compounds screened, about 60 (0.1%) were called active. Inconclusive results (about 3%) are left out. Calls follow the shape of the dose curve; as a rule, active = well fitted inhibition curve with a large enough effect; inconclusive = small, poorly fitted or top-dose-only effect; inactive = no such curve, though single readings can be large or run the other way. This is one part of the list.

A short description of the experiment: Primary qHTS assay for Inhibitors of ovarian cancer metastasis using an organotypic tumor microenvironment (TME) model. Also: nearly all actives have a fitted effect of over 65% in size.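 As to activity change, negative = inhibition: plate controls were DMSO wells for no effect and tomatine positive control wells for full effect.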 As to conditions: SKOV3ip1-GFP adhesion/invasion on 3D omental model, fluorescence; series mostly up to 45.8 µM; activity change, negative = inhibition: at the top concentration. The method in brief: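 Adhesion/invasion was scored as fixed GFP-labeled SKOV3ip1 cell counts (488/509 nm), normalized to DMSO and tomatine controls. Cancer cells in serum-free medium, with four compound doses (0.36-46 umol/L), sat 2 hr at RT then 16 hr at 37 C on a 48 hr fibroblast/mesothelial/ECM culture.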
For `CCCSc1ncc(Cl)c(C(=O)Nc2ccc(S(=O)(=O)N3CCC(C)CC3)cc2)n1`, the result was inactive.

For `Cc1ccc(Cl)cc1N1CCN(C(=O)c2cnn(C(C)(C)C)c2C2CCN(C(=O)OC(C)(C)C)CC2)CC1`, the “activity change, negative = inhibition” value is inactive: -4.42%.

On to `CCOc1ccc(NC(=O)Cn2cc(C(=O)c3ccc(CC)cc3)c(=O)c3cc4c(cc32)OCO4)cc1`, for which the “activity change, negative = inhibition” value was inactive: 17.8%.

For the compound `COc1ccc2c(c1)CC(C(=O)NCCN1CCN(c3ccccc3F)CC1)CO2` (stereo not drawn), the “activity change, negative = inhibition” value was inactive: -2.13%.

With `CCCC(=O)N1CCc2cc(OC)c(OC)cc2C1COc1ccc2c(C)cc(=O)oc2c1` (stereo not drawn), the “activity change, negative = inhibition” value was inactive: 1.35%.

`COc1ccc(NC(=O)Cn2c(=O)cc(C)c3c(C)nn(C)c32)cc1`: the call was inactive.

For the compound `COc1ccc(CNc2nc(-c3ccc(OC)cc3)cc(C(F)(F)F)n2)cc1`, the compound was called inactive.

On to `COc1ccc(NC(=O)c2cnc(Nc3ccc(C)c(Cl)c3)c3ccccc23)c(OC)c1`, for which the outcome was inactive.

`O=C(Nc1c(C(=O)c2ccc(Cl)cc2)oc2ccccc12)c1cc(=O)c2ccccc2o1`: the “activity change, negative = inhibition” value was inactive: 0.475%.

Regarding `Cn1nnnc1SCCCNCc1cccc(OCc2ccccc2F)c1`, the “activity change, negative = inhibition” value is inactive: 4.88%.

For `Cc1ccc(/C=C(\C#N)C(=O)Nc2ccc(Br)cc2)o1`, the “activity change, negative = inhibition” value is inactive: -0.342%.

`O=C(Cn1cc(SCc2ccc(Br)cc2)c2ccccc21)N1CCCCC1`: the “activity change, negative = inhibition” value is inactive: -5.45%.

Consider `CCc1ccc(NC(=O)CN2CCN(C3CCCCC3)C(=O)C2=O)cc1`, for which the call was inactive.

In the case of `CCC(Sc1ncc(S(=O)(=O)c2ccc(C)cc2)c(=O)[nH]1)C(=O)Nc1cc(C)ccc1C` (stereo not drawn), the “activity change, negative = inhibition” value is inactive: -7.86%.

`COc1ccc(CCN2C(=O)NC(NC(=O)c3ccccc3OC)(C(F)(F)F)C2=O)cc1OC` (stereo not drawn): the result was inactive.

Take `COc1ccc(NC(=O)c2ccco2)cc1NC(=O)c1ccc(C)c(C)c1`: the “activity change, negative = inhibition” value is inactive: 9.01%.

Regarding `Cc1ccc2oc(=O)c(S(=O)(=O)c3ccc(F)cc3)cc2c1`, the compound was called inactive.

On to `CCc1nc2ccc(C(=O)NCc3ccc(N(C)C)cc3)cc2nc1CC`, for which the call was inactive.

As for `CCN(C(=O)CSc1nc2ccccc2n1Cc1ccc(C(=O)OC)cc1)c1ccccc1`, the “activity change, negative = inhibition” value is inactive: 2.23%.

Turning to `CC(=O)Nc1ccc(NC(=O)CN2C(=O)CC(c3ccco3)Sc3ccccc32)cc1` (stereo not drawn), the call was inactive.

Turning to `Cc1ccc(-c2cc(C(F)(F)F)n3nc(-c4cccc(Br)c4)cc3n2)cc1`, the “activity change, negative = inhibition” value is inactive: -10.7%.

With `CN(C(=O)c1c[nH]c2ccc(S(=O)(=O)Nc3cccc(C(F)(F)F)c3)cc2c1=O)C1CCCCC1`, the compound was called inactive.

Consider `CCn1c(=O)cc(OCC(=O)N2CCN(c3ccc(C(C)=O)cc3)CC2)c2ccccc21`, for which the compound was called inactive.

Turning to `CC(C)c1cc(-c2n[nH]c(=O)n2-c2ccc3c(ccn3C)c2)c(O)cc1O`, the “activity change, negative = inhibition” value was inactive: 6.13%.

Regarding `COc1ccc(N2CCN(C(=O)CN3CCSc4ccccc43)CC2)cc1`, the “activity change, negative = inhibition” value was inactive: 5.97%.

Regarding `O=C(Cn1nc(Cc2ccncc2)c2ccccc2c1=O)Nc1cccc(C(F)(F)F)c1`, the “activity change, negative = inhibition” value was inactive: 25%.

For `COc1ccccc1CNC(=O)Cn1c(-c2ccc(F)cc2)cc(C(C)=O)c1C`, the “activity change, negative = inhibition” value was inactive: 6.95%.

With `Cc1ccc(CSCCC(=O)N2CCN(c3ccc(F)cc3)CC2)cc1`, the “activity change, negative = inhibition” value is inactive: 2.5%.

For `CCN(CC)CCN(C(=O)c1ccco1)c1nc2c(C)c(C)ccc2s1`, the “activity change, negative = inhibition” value was inactive: -5.64%.

As for `CNC(=O)c1c(NC(=O)c2cc(=O)c3cc(C)c(C)cc3o2)sc2c1CCCC2`, the “activity change, negative = inhibition” value is inactive: -2.48%.

As for `Cc1cccc(C)c1Nc1c(-c2ccc(N3CCOCC3)cc2)nc2ncccn12`, the “activity change, negative = inhibition” value is inactive: 2.94%.

Consider `O=C(CCSCc1ccc(Cl)cc1)NCCc1ccccc1`, for which the call was inactive.

As to `Cc1ccc(NC(=O)C2CCCN(c3ncnc4onc(C)c34)C2)c(Cl)c1` (stereo not drawn), the “activity change, negative = inhibition” value was inactive: 0.271%.

Regarding `O=C(O)C1CCCN(CCC=C(c2ccccc2)c2ccccc2)C1` (stereo not drawn), the “activity change, negative = inhibition” value was inactive: -13.6%.

For the compound `COc1ccc(Cl)cc1NC(=O)Nc1c[nH]c(=O)[nH]c1=O`, the “activity change, negative = inhibition” value was inactive: 7.17%.

Turning to `Cc1c(Cl)cccc1N1CCn2c1nc1c2c(=O)n(CC(=O)O)c(=O)n1C`, the “activity change, negative = inhibition” value is inactive: 0.707%.

Take `CCCCNC(=O)CC1Nc2cc(C)c(C)cc2NC1=O` (stereo not drawn): the compound was called inactive.

In the case of `CC1(C)OC2CC3C4CC(F)C5=CC(=O)C=CC5(C)C4C(O)CC3(C)[C@]2(C(=O)CO)O1` (stereo partly drawn), the “activity change, negative = inhibition” value was inactive: 22.3%.

`CN(C)S(=O)(=O)c1ccc(C(=O)NCCSc2c(-c3ccc(Br)cc3)[nH]c3ccccc23)cc1`: the “activity change, negative = inhibition” value was inactive: 11%.

On to `COc1ccccc1NC(=O)c1nn(C)c2c1CS(=O)(=O)c1ccccc1-2`, for which the “activity change, negative = inhibition” value was inactive: -14.4%.

As to `CCN(C(=O)CCS(=O)(=O)c1ccc2c(c1)CCN2C(C)=O)c1cccc(C(F)(F)F)c1`, the “activity change, negative = inhibition” value is inactive: 10.1%.

For `O=C(NCC(c1cccnc1)N1CCc2ccccc2C1)C(=O)Nc1ccccc1F` (stereo not drawn), the “activity change, negative = inhibition” value is inactive: 3.87%.

Turning to `O=C(Nc1ccc(-c2nc3ccccc3o2)c(O)c1)c1cc(Cl)ccc1Cl`, the call was inactive.

In the case of `CCCCc1ccc(Nc2cc(C)nc(-n3nc(C)cc3C)n2)cc1`, the compound was classed as inactive.

`CSc1ccc(CNC(=O)Cn2c(-c3cccs3)cc3cc(F)ccc32)cc1`: the “activity change, negative = inhibition” value was inactive: -2.3%.

As for `O=C(/C=C\c1ccc2c(c1)OCO2)NC1CC(=O)N(c2ccccc2)C1` (stereo not drawn), the “activity change, negative = inhibition” value is inactive: -4.79%.

Take `CC1Cc2cc(S(=O)(=O)CCC(=O)Nc3ccc(F)cc3)ccc2N1C(=O)C1CC1` (stereo not drawn): the “activity change, negative = inhibition” value was inactive: -5.97%.

On to `CCN1CCc2c(sc(NC(=O)c3ccc(S(=O)(=O)N(C)C4CCCCC4)cc3)c2C(N)=O)C1`, for which the compound was called inactive.
